Molecular target: T1, endogenous BAFF receptor in BJAB cells (human, UniProt Q96RJ3 1-184)
T1 construct: whole, on cells; also called hBAFF-R
T1 sequence (looked up): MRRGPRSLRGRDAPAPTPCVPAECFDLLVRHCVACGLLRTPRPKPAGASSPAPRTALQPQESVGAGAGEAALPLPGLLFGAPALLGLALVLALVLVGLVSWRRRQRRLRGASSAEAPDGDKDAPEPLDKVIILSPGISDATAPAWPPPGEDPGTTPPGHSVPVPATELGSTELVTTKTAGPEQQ
Test: flow cytometry on BAFF-R-positive BJAB cells, PE-conjugated anti-human Ig detection (FIG. 6A)

B1: Fc:BAFF (Fc fusion)
chain: not shown
notes: Used as cell supernatant in the ELISA and FACS, and at 3 ug in the immunoprecipitation; No chain number is stated for this construct
- binding result: binds
